From the supplement of paper PMC8728848 come the findings set out here.

The list shows a part of the results.

What all share (assay): glycan array binding signal (z-score within array); higher = stronger binding
Settings in all cases: glycan notation: IUPAC condensed, linker removed

Test [1] has as its target Gal(b1-4)GalNAc(b1-3)[Fuc(a1-2)]Gal(b1-4)GlcNAc. The method in brief: (§1)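 Arrays were curated from the Consortium for Functional Glycomics database, 3228 in total, and kept only where the protein sequence was available. Binding is expressed as a within-array Z-score. This score was averaged across arrays of the same protein sequence at different concentrations or buffers and across linkers, and negative values can be read as non-binding.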

The target of the next test is Gal(b1-4)Glc. The method in brief:
as §1

In another test the target is Gal(b1-4)Glc6S. In short, it runs like this: as §1
A further test deals with Gal(b1-4)GlcNAc. In short, it runs like this:
as §1

Test [2] addresses Gal(b1-4)GlcNAc(a1-6)Gal(b1-4)GlcNAc. The method in brief:
as §1

In the next test the target is Gal(b1-4)GlcNAc(b1-2)Man. The method in brief:
as §1

Test [3] has as its target Gal(b1-4)GlcNAc(b1-2)Man(a1-3)Man(b1-4)GlcNAc(b1-4)GlcNAc. The method in brief:
as §1

Test [4] concerns the target Gal(b1-4)GlcNAc(b1-2)Man(a1-3)[Gal(b1-4)GlcNAc(b1-2)Man(a1-6)]Man(b1-4)GlcNAc(b1-4)GlcNAc. The method in brief: as §1
The target in test [5] is Gal(b1-4)GlcNAc(b1-2)Man(a1-3)[Gal(b1-4)GlcNAc(b1-2)Man(a1-6)]Man(b1-4)GlcNAc(b1-4)[Fuc(a1-6)]GlcNAc. In short, it runs like this: as §1
The target of test [6] is Gal(b1-4)GlcNAc(b1-2)Man(a1-3)[Gal(b1-4)GlcNAc(b1-2)Man(a1-6)][Gal(b1-4)GlcNAc(b1-4)]Man(b1-4)GlcNAc(b1-4)[Fuc(a1-6)]GlcNAc. In short, it runs like this:
as §1

For test [7], the target named is Gal(b1-4)GlcNAc(b1-2)Man(a1-3)[Gal(b1-4)GlcNAc(b1-2)Man(a1-6)][GlcNAc(b1-4)]Man(b1-4)GlcNAc(b1-4)[Fuc(a1-6)]GlcNAc. The method in brief: as §1
In test [8] the target is Gal(b1-4)GlcNAc(b1-2)Man(a1-3)[GlcNAc(b1-2)Man(a1-6)]Man(b1-4)GlcNAc(b1-4)GlcNAc. The method in brief: as §1
Test [9] concerns the target Gal(b1-4)GlcNAc(b1-2)Man(a1-3)[GlcNAc(b1-4)][Gal(b1-4)GlcNAc(b1-2)Man(a1-6)]Man(b1-4)GlcNAc(b1-4)GlcNAc. In short, it runs like this:
as §1

Test [10] addresses Gal(b1-4)GlcNAc(b1-2)Man(a1-3)[Man(a1-6)]Man(b1-4)GlcNAc(b1-4)GlcNAc. In short, it runs like this: as §1
For test [11], the target named is Gal(b1-4)GlcNAc(b1-2)Man(a1-6)Man(b1-4)GlcNAc(b1-4)GlcNAc. In short, it runs like this:
as §1

The target of test [12] is Gal(b1-4)GlcNAc(b1-2)Man(a1-6)[GlcNAc(b1-2)Man(a1-3)]Man(b1-4)GlcNAc(b1-4)GlcNAc. The method in brief: as §1
Test [13] has as its target Gal(b1-4)GlcNAc(b1-2)Man(a1-6)[Man(a1-3)]Man(b1-4)GlcNAc(b1-4)GlcNAc. In short, it runs like this: as §1
Test [14] concerns the target Gal(b1-4)GlcNAc(b1-2)[Gal(b1-4)GlcNAc(b1-4)]Man(a1-3)[Gal(b1-4)GlcNAc(b1-2)Man(a1-6)]Man(b1-4)GlcNAc(b1-4)GlcNAc. In short, it runs like this:
as §1

Test [15] has as its target Gal(b1-4)GlcNAc(b1-2)[Gal(b1-4)GlcNAc(b1-4)]Man(a1-3)[Gal(b1-4)GlcNAc(b1-2)[Gal(b1-4)GlcNAc(b1-6)]Man(a1-6)]Man(b1-4)GlcNAc(b1-4)GlcNAc. In short, it runs like this:
as §1

For test [16], the target named is Gal(b1-4)GlcNAc(b1-2)[Gal(b1-4)GlcNAc(b1-4)]Man(a1-3)[GlcNAc(b1-4)][Gal(b1-4)GlcNAc(b1-2)Man(a1-6)]Man(b1-4)GlcNAc(b1-4)GlcNAc. The method in brief:
as §1

Test [17] addresses Gal(b1-4)GlcNAc(b1-2)[Gal(b1-4)GlcNAc(b1-4)]Man(a1-3)[GlcNAc(b1-4)][Gal(b1-4)GlcNAc(b1-2)[Gal(b1-4)GlcNAc(b1-6)]Man(a1-6)]Man(b1-4)GlcNAc(b1-4)GlcNAc. The method in brief: as §1
Test [18] has as its target Gal(b1-4)GlcNAc(b1-2)[Gal(b1-4)GlcNAc(b1-6)]Man(a1-6)[Gal(b1-4)GlcNAc(b1-2)Man(a1-3)]Man(b1-4)GlcNAc(b1-4)GlcNAc. The method in brief:
as §1

B1: Als3-N (Candida albicans) (protein)
chain: KTITGVFNSFNSLTWSNAATYNYKGPGTPTWNAVLGWSLDGTSASPGDTFTLNMPCVFKFTTSQTSVDLTAHGVKYATCQFQAGEEFMTFSTLTCTVSNTLTPSIKALGTVTLPLAFNVGGTGSSVDLEDSKCFTAGTNTVTFNDGGKKISINVDFERSNVDPKGYLTDSRVIPSLNKVSTLFVAPQCANGYTSGTMGFANTYGDVQIDCSNIHVGITKGLNDWNYPVSSESFSYTKTCSSNGIFITYKNVPAGYRPFVDAYISATDVNSYTLSYANEYTCAGGYWQRAPFTLRWTGYRNSDAGSNGIVIVATTRTVTDSTTAVTTLPFDPNRDKTKTIEILKPIPTTTITTSYVGVTTSYLTKTAPIGETATVIVDIPYHTTTTVTSKWTGTITSTTTHTNPTDSIDTVIVQVP
B1: the “glycan array binding signal (z-score)” value in [1] was -0.284; in the test with Gal(b1-4)Glc, -0.209; with Gal(b1-4)Glc6S it was -0.158; in the test with Gal(b1-4)GlcNAc it was -0.168; in [2], -0.28; with Gal(b1-4)GlcNAc(b1-2)Man, -0.24. Also, the “glycan array binding signal (z-score)” value was -0.288 in [3]; 0.046 in [4]; -0.291 in test [5]; -0.252 in test [6]; -0.246 in test [7]; 0.335 in test [8]. For the same molecule, the “glycan array binding signal (z-score)” value in [9] is -0.323; in [10], -0.206; in test [11], -0.205; in test [12] it was -0.27; in test [13], 0.02; in test [14], -0.236. The “glycan array binding signal (z-score)” value in test [15] was -0.36; in [16], -0.288; in test [17] it was -0.249; in test [18], 0.505.
